Reference: PubChem BioAssay AID588382 (National Center for Advancing Translational Sciences (NCATS), 2011)
About 150 (12%) of roughly 1,300 compounds were called active. Inconclusive results, whose numbers are uncertain, are shown with a selection of clear calls. Calls come from the whole dose curve; as a rule, active = well fitted cell-killing curve with a large enough effect; inconclusive = small, poorly fitted or top-dose-only effect, or effect the other way; inactive = flat fitted curve, though single readings scatter. Potencies of inconclusive entries are doubtful fits and often do not repeat.

experiment: qHTS of small molecules that selectively kill Giardia lamblia: Hit Validation in HepG2 cytotox; settings: cell viability; Potency: HepG2 cytotoxicity; series mostly up to 38.3 µM;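 note: compound exposure lasted overnight at 37 deg C; nearly all actives have a fitted effect of over 55% in size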
Outline: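 HepG2 cells seeded and incubated overnight at 37 deg C, then 23 nL compound added by pintool and incubated overnight at 37 deg C. Viability read as ATP luminescence with ATPLite after 15 min at room temperature.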
Potency is the fitted concentration of half-maximal effect; tags give direction and shape of the fitted curve.

Structure (SMILES) | Potency
COc1ccc(-n2nc([N+](=O)[O-])c(=NCCC3=CCCCC3)n2O)cc1 | inactive
Cn1nc([N+](=O)[O-])nc1Sc1cccc2cccnc12 | inconclusive: 23.3 µM [cytotoxic, single point]
Cc1nc2ccccc2n1/N=C/c1ccc([N+](=O)[O-])s1 | active: 16.5 µM
CC(C)c1ccc(Nc2nnc(SCC(=O)Nc3ncc(S(=O)(=O)c4ccc([N+](=O)[O-])cc4)s3)s2)cc1 | inconclusive: 1.65 µM [cytotoxic, full curve]
Cc1cc(N2CCN(C)CC2)nc2ccc(NC(=S)N3CCN(c4cccc(Cl)c4)CC3)cc12 | inactive
O=C(C1=C(c2ccccc2)C(=O)c2ccccc2C1=O)c1ccccc1 | inconclusive: 23.3 µM [cytotoxic, single point]
Cc1ccc(NC(C)C(=O)N/N=C/c2ccc([N+](=O)[O-])s2)cc1 (stereo not given) | inactive
COc1ccccc1Nc1cc(C)nc2c(C)ccc([N+](=O)[O-])c12 | inactive
Cc1nc2c(ccc3nc(NC(=O)c4ccc5c(c4)OCCO5)sc32)s1 | active: 1.85 µM
Cc1ccc(-n2nnnc2CNC(=O)c2ccc([N+](=O)[O-])o2)cc1C | inconclusive: 26.1 µM [cytotoxic, single point]
CCc1nc2cc([N+](=O)[O-])c([N+](=O)[O-])cc2[nH]1 | inactive
CS(=O)(=O)N1CCN(c2ccccc2NC(=O)c2ccc([N+](=O)[O-])o2)CC1 | inactive
O=C(/C=C/c1ccc([N+](=O)[O-])s1)N1CCN(c2ccccc2)CC1 | inconclusive: 4.65 µM [rising, partial curve, poor fit]
CC(C)OC(=O)Nc1ccc2c(c1)N(C(=O)N1CCN(C)CC1)c1ccccc1CC2 | active: 0.521 µM
COC(=O)/C(=C\c1ccc([N+](=O)[O-])o1)NC(=O)c1ccccc1 | inconclusive: 26.1 µM [cytotoxic, single point]
O=[N+]([O-])C(/C=C(/Cl)[N+](=O)[O-])=C(N1CCCCC1)N1CCCCC1 | inactive
COc1cc(N=c2c([N+](=O)[O-])nn(-c3ccc4c(c3)OCCO4)n2O)cc(OC)c1 | inconclusive: 26.1 µM [cytotoxic, partial curve, poor fit]
NC(=O)CCCn1c(C(=O)c2cc(Cl)c(N)c(Cl)c2)c2ccc([N+](=O)[O-])cc2[n+]1[O-] | inconclusive: 23.3 µM [cytotoxic, single point]
Cc1cccc(NC(=O)c2ccc([N+](=O)[O-])o2)c1C | inconclusive: 23.3 µM [cytotoxic, single point]
c1csc(-c2ccc(N3CCOCC3)nn2)c1 | active: 6.56 µM
C=C1C=C(C)n2ncc(C(=O)Nc3ccc(C)cn3)c2N1 | inactive
O=C(Nc1ccc2c(c1)nc1n2CCSC1)c1ccco1 | active: 2.33 µM
Cc1ccc(NC(=O)c2ccc([N+](=O)[O-])o2)cc1C | inconclusive: 26.1 µM [cytotoxic, single point]
O=C(CSc1ccc(Cl)cc1)N/N=C/c1ccc([N+](=O)[O-])o1 | inconclusive: 26.1 µM [cytotoxic, single point]

Structure (SMILES) | Potency
O=C(COc1cccnc1[N+](=O)[O-])Nc1c(Cl)cccc1Cl | inactive
C(=C\c1nccc2ccccc12)/c1ccc(N2CCOCC2)cc1 | inconclusive: 2.93 µM [cytotoxic, full curve]
N#Cc1ccccc1S(=O)(=O)N1CCN(C(=O)c2cn(-c3ccccc3)nc2-c2cccnc2)CC1 | inconclusive: 11.7 µM [cytotoxic, partial curve, poor fit]
COC(=O)[C@@]1(Cc2ccc(OC)cc2)[C@H]2c3cc(C(=O)N4CCCC4)n(CCn4cc([N+](=O)[O-])nc4C)c3C[C@H]2CN1C(=O)c1ccccc1 | inactive
Cc1ccccc1C(=O)N1CCN(c2ccc(NC(=O)c3ccc([N+](=O)[O-])o3)cc2)CC1 | active: 3.29 µM
Cc1ccc(-c2nnc(NC(=O)c3ccc([N+](=O)[O-])o3)o2)c(C)c1 | inactive
Cc1c[n+]([O-])ccc1[N+](=O)[O-] | inactive
O=[N+]([O-])c1cc(S(=O)(=O)N2CCOCC2)ccc1NS(=O)(=O)c1ccccc1 | inconclusive: 3.29 µM [rising, single point]
O=[N+]([O-])c1ccc(/C=N/Nc2nc(N3CCCC3)nc(N3CCCC3)n2)o1 | inactive
CCNc1nc(NCC)nc(N/N=C/c2ccc([N+](=O)[O-])o2)n1 | inconclusive: 0.131 µM [cytotoxic, full curve, poor fit]
Cc1nnc(N/N=C/c2cccs2)[nH]c1=O | active: 2.07 µM
COc1ccc2nc3cc(Cl)ccc3c(Nc3ccc(O)c(CN4CCN(C)CC4)c3)c2c1 | inconclusive: 23.3 µM [cytotoxic, single point]
COc1ccc(C(=O)c2c3ccc([N+](=O)[O-])cc3[n+]([O-])n2CCCN)cc1 | inconclusive: 26.1 µM [cytotoxic, single point]
CC1(C)CC(N=c2cc(-c3ccccc3)oc3ccc(Cl)cc23)CC(C)(C)N1 | active: 8.26 µM
O=C(Nc1cccc2ccccc12)c1ccc([N+](=O)[O-])s1 | inconclusive: 13.1 µM [cytotoxic, single point]
O=C(CSc1nnc(NC(=O)c2ccccc2)s1)NCc1ccco1 | active: 2.07 µM
Cc1cc(C(=O)N/N=C/c2ccc([N+](=O)[O-])o2)c(C)o1 | inconclusive: 4.14 µM [cytotoxic, partial curve, poor fit]
O=C(O)c1ccc(NC(=O)c2cc3ccccc3o2)cc1 | inconclusive: 6.56 µM [cytotoxic, partial curve]
COc1ccc(CNC(=O)CSc2ccsc2[N+](=O)[O-])cc1 | inconclusive: 0.0927 µM [rising, full curve, poor fit]
COC(=O)c1ccc2cc(OC)cc([N+](=O)[O-])c2n1 | inactive
O=[N+]([O-])c1cc(S(=O)(=O)N2CCCC2)ccc1N/N=C/c1ccncc1 | inactive
Cc1ccc(NC(=O)c2ccc([N+](=O)[O-])o2)c(C)c1 | inconclusive: 2.61 µM [cytotoxic, partial curve, poor fit]
O=C(CNC(=O)c1ccccc1F)N/N=C/c1cc(Br)ccc1OCc1ccccc1 | inactive
Cc1ccc(C(=O)c2c3ccc([N+](=O)[O-])cc3[n+]([O-])n2CCCN)cc1 | inconclusive: 6.56 µM [cytotoxic, partial curve]

Structure (SMILES) | Potency
COc1cc2nc(N3CCN(C)CC3)nc(NC3CC3)c2cc1OC | inconclusive: 6.56 µM [cytotoxic, partial curve, poor fit]
Cn1nc(-c2ccc(F)cc2)nc2c(=O)n(C)c(=O)nc1-2 | active: 2.61 µM
O=C(COc1cccnc1[N+](=O)[O-])Nc1ccc2c(c1)CCC2 | inactive
Cc1ccc(CN=c2c([N+](=O)[O-])nn(-c3ccc(Cl)cc3)n2O)cc1 | inactive
CC(=O)O[C@]1(C(C)=O)CCC2C3CCC4=C/C(=N/OCC(=O)O)CC[C@]4(C)C3CC[C@@]21C (stereo not given in full) | inconclusive: 7.36 µM [rising, partial curve, poor fit]
Cc1cc(NC(=O)c2ccc(Cl)cc2Cl)n(-c2ccccc2)n1 | inconclusive: 14.7 µM [cytotoxic, single point]
O=C(N/N=C/c1ccc([N+](=O)[O-])o1)c1cc(-c2ccc(-c3ccccc3)cc2)nc2ccccc12 | active: 2.61 µM
CCN(CC)/[N+]([O-])=N/Oc1ccc([N+](=O)[O-])cc1[N+](=O)[O-] | inconclusive: 26.1 µM [cytotoxic, single point]
[O-][n+]1c2cc(C(F)(F)F)ccc2c2n1CCN=C2c1ccc(Cl)cc1 | inactive
CC(=O)c1c(C)oc2c1C(=O)c1ccccc1C2=O | inconclusive: 23.3 µM [cytotoxic, single point]
COc1cc(/C=C/c2onc(C)c2[N+](=O)[O-])cc(OC)c1OC | inactive
Cc1cc2nc(-c3ccc[nH]c3=O)[nH]c2cc1C | active: 2.33 µM
COc1cccc2c1C(CO)N1C(C#N)C3CC(C(=O)O)C(C1C2)N3C (stereo not given) | inconclusive: 0.464 µM [cytotoxic, partial curve, poor fit]
CC1CCN(c2ccc(-c3ccc(NC(=O)C(F)(F)F)cc3)nn2)CC1 | active: 4.14 µM
Cc1ccnc(NC(=O)c2ccc3c(c2)OCO3)c1 | active: 0.585 µM
O=C(Nc1ccc(NC(=O)c2ccc([N+](=O)[O-])o2)cc1Cl)c1ccco1 | inconclusive: 0.585 µM [cytotoxic, partial curve, poor fit]
O=[N+]([O-])c1nn(-c2ccc3c(c2)OCCO3)n(O)c1=NC1CCCC1 | inconclusive: 16.5 µM [rising, partial curve, poor fit]
CC(=O)O[C@@H]1[C@@H](OC(C)=O)[C@H](n2ccc3cc([N+](=O)[O-])ccc32)OC[C@@H]1OC(C)=O | inactive
CN(C)c1ccc(C2NC(=O)c3ccccc3N2)cc1 (stereo not given) | inconclusive: 4.65 µM [cytotoxic, full curve, poor fit]
CCN(CC)CCOC(=O)c1ccc(N/C=C(/C#N)c2nc(-c3ccc4c(c3)OCO4)cs2)cc1 | inconclusive: 23.3 µM [cytotoxic, single point]
COc1cc(C2Nc3ccccc3C(=O)N2c2ccc3c(c2)OCCO3)ccc1OCC(C)C (stereo not given) | inconclusive: 23.3 µM [cytotoxic, single point]
Cc1onc(-c2ccccc2)c1C(=O)N(Cc1ccccc1)C(C)C | inactive
